Measured values taken from the supplement of paper PMC10185492.
This is one part of the list. Read counts after selection give these values, which scatter widely.

Test system: SARS-CoV-2 3CLpro (nsp5)
Experiment: substrate phage enrichment score (protease-eluted vs HEPES control, +1 offset) (ratio); higher = better cleaved substrate
Details: selection round: 4; protease elution time: 15 min
Method: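 Random heptapeptide substrate phage display (M13 pIII fusion, heptapeptide between an N-terminal biotinylated AviTag GLNDIFEAQKIEWHE and pIII; phages immobilised on streptavidin) eluted by cleavage with 50 nM protease in 20 mM HEPES at 37 °C. Selected phages were NGS sequenced, and the enrichment score is (reads in protease sample + 1)/(reads in HEPES blank-selection control + 1).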

Substance	substrate phage enrichment score
TNGAMPA	> 23
IYRDGWQ	> 24
IHTEVYR	> 26
DITHQAE	3.5
ASQTIHK	0.8
TSKPIAA	3.43
NKPGLTS	> 123
CTEWQGH	0.308
RQLMEKP	8.43
ESAAHHH	0.4
PAPIHFR	> 92
PSSIHRE	> 28
CTMSSEH	2.1
SMPCDLR	0.625
YAQYPTG	7
QPESCTW	0.3
AREKSTW	2.46
SCINKNA	> 24
YGAKNVP	> 24
IESPNNR	0.5
ASVGMQQ	1.4
QHTEKNR	> 25
KALDTTV	10.3
MNCEWPV	0.24

Substance	substrate phage enrichment score
VLSMPVH	> 422
GPAAHHH	0.38
TCLSHGY	4
WTRLQGN	> 47
VSTTEPR	1.3
ALYFQGG	1.62
AHPPVHP	> 21
SSETQES	1
ERHCRGE	3.7
NRKSNLQ	> 30
PVSPTSA	0.143
CILQALG	> 46
CPVSLVR	1.63
AETTTMH	> 63
GGARHDG	2.43
SAAANQH	1
TSLQSGS	104
CAHDVLR	> 34
QQQPTIR	> 36
SHGKVRV	2.89
TWSPKSG	1.78
AAPEILN	0.643
SVLQCRP	> 21
GQSMPAG	> 41

Substance	substrate phage enrichment score
VAENDSP	1.42
QKHLENG	0.722
PMGPESH	> 29
VRQEPSE	1.9
VLSPMDD	3.67
ANSMYAD	5.25
HIPLTLG	29.5
KSRGGSA	0.143
SKNRLAE	> 21
HLNFQGG	0.506
DMAAHHH	0.353
TRNSPSQ	> 32
WCMPYAT	> 47
SPAAEMS	0.273
STIDNVR	1.24
SPGIVES	0.824
GRTAEDR	1.89
GAMNGRS	2.29
GLYRGQR	7.33
PHGCDLY	1.5
TPAGPNN	9
VSGEPWV	0.446
VANSGVT	0.474
LETTTLQ	> 35

Substance	substrate phage enrichment score
PVLPPAQ	8.1
PESRQLC	> 24
YHHHHHG	1
TRRPDVA	4.4
RNPMSKA	1.56
THDPGFE	> 27
TCTELQS	1.55
RSALTRQ	6.29
FIYESVG	> 35
ESWGCQR	> 42
MTAAHHH	1.43
SSSEIRQ	> 235
LLLNSGR	4
PIVLKCE	> 26
KPTCVLS	6.5
ESNMLHQ	> 31
CRENPTR	0.667
AESSKAR	> 62
GYSIQSR	> 31
HAPSISR	0.16
ENFWGPR	1.71
QRVTSSV	> 32
RRAPVLQ	45
IGTYSRQ	0.706

Substance	substrate phage enrichment score
HLNGPTH	> 25
ERDGKAP	> 35
LENPQGA	0.933
WGAAAHH	0.143
PTYRDRT	> 48
IDAAHHH	0.806
QSYFPIQ	0.12
RLGAPIT	1.39
THSRLCP	0.852
RCMHASC	3.12
PNDVVTT	> 22
RKPCLVQ	3.7
PSGLNQS	> 21
RGNPTCN	> 46
QERYPDV	> 29
LQGGSAA	1.45
SKTPVKT	5.07
HPQLQCQ	> 24
NAKVCGS	1.27
KTELSKS	5.6
ASPTTLQ	> 63
CFSPLWP	9.5
YQLNISG	1.69
QASARLQ	> 38

Substance	substrate phage enrichment score
ASRQGVN	4.55
HQNFERA	> 24
VYHGKDP	10
NGGPSRR	2.44
RQPPAAN	2.06
ATGDAYS	0.389
VGDSKLK	0.737
CQSDTYG	2.32
MAKTCAD	0.1
KPTYTGP	> 30
GNAQSWQ	5.75
VNDATGK	3.14
QENGTLR	> 21
AGGQLKA	7
THLLPQR	> 69
CEQGIWY	5
PCCVNCV	5
SRQHSPQ	2.5
TFAGCGS	3.17
FSIRADR	0.643
NDAAHHH	0.857
CVPGTIS	4.75
VKAAHHH	1.94
ERTRLQG	> 29

Substance	substrate phage enrichment score
EMESLSV	> 22
ALGGKEC	2.76
PVKERPR	8.5
LETHGGS	> 64
VEPMMSC	0.375
ALNFQGG	3.55
VSRPRPI	3.5
PCETLRQ	2
CSTGMVN	4.64
YPVRTSR	0.929
HKAAHHH	0.368
PDCLMCA	0.915
YENTLRQ	0.588
ETSNNLR	> 24
HDHHHHG	0.562
ETCPLPA	7.5
RRPGVRP	1.44
TSNFPER	1.31
LAAAHHH	0.903
HGCSGLQ	> 57
HILDSVS	0.63
TSTSHYR	14.5
RWSRTDV	1.5
AKLDNMM	> 51

Substance	substrate phage enrichment score
NGGSAAA	0.917
EWNAVTH	12.5
DRAESMS	0.941
TVFGTAA	1.65
ARHMTPG	> 42
IKTDAVR	0.087
TNAAALH	> 25
PHEPINK	2.5
CALNKFQ	> 33
WRELQSY	19
SRVPPQT	3
GLQGPLR	> 28
RCCGHSE	0.571
TTQEERV	11
RTADEAH	12
AVIRRTS	> 43
KCRYLPQ	> 23
SSAAHHH	1.18
DMREKPA	> 28
CAAAHHH	0.569
LHSSQET	> 41
VKPVLQS	> 22
FLKYSLE	> 30
VPCPERH	1.38

Substance	substrate phage enrichment score
TGRAQLH	> 31
QNNKSRN	> 40
SQTLLYG	11.3
PRTERHP	> 38
RAAAHQQ	1.19
ITTEGKR	63.5
SKAGSIR	1.75
NAARTWR	> 21
TNTDPGF	2.83
GNSCVVS	0.338
PTFSQGR	0.421
TRHPTML	1.81
CAAAQHQ	1.15
PGNASRN	> 35
SETQITD	> 33
NETAHHH	0.138
FLTECHR	3.67
TSCGADR	> 52
ANYNKLM	1.3
EIRTMQA	1.6
AISKPNR	1.09
GGTINAR	> 53
KFSKFEG	1.65
IYNSTLQ	> 26

Substance	substrate phage enrichment score
LRPNCQI	25
TTELLTE	> 135
KPVGVSP	2.4
DLCETVN	> 86
KQQRAWL	8.4
SQAAHHH	1.54
WRHIFQG	> 24
TKFGQGD	4
PAWTFGC	0.765
ERYFQGG	2.8
TSVAETG	12
LKRPSYG	> 21
CRLQSDS	> 93
RSTRTRQ	10.7
PLVVSPR	1.8
ITIRNSP	1.56
SLYFQGG	1.45
VHNGKSG	1.65
